{"source": "patent US9763922B2", "about": "(priority 2014, dated 2017)", "data": [{"tested_on": "MYC", "test": "cells", "details": "Homo sapiens, MV4-11, 4 h, read-out: Myc IC50 (μM)", "units": {"IC50": "µM"}, "values": [{"smiles": "CC(=O)N1CCc2c(c(Nc3cccc(Br)c3)nn2CC2CC2)C1", "note": "[Example 61, 1-(3-((3-bromophenyl)amino)-1-(cyclopropylmethyl)-6,7-dihydro-1H-pyrazolo[4,3-c]pyridin-5(4H)-yl)ethanone]", "IC50": 0.59}, {"smiles": "CCC(=O)N1CCc2c(c(N3CCCc4cc(-c5cnn(C)c5)c(C(F)F)cc43)nn2C2CCOCC2)C1", "note": "[Example 242, 1-[3-[7-(difluoromethyl)-6-(1-methylpyrazol-4-yl)-3,4-dihydro-2H-quinolin-1-yl]-1-tetrahydropyran-4-yl-6,7-dihydro-4H-pyrazolo[4,3-c]pyridin-5-yl]propan-1-one]", "IC50": 0.112}, {"smiles": "CC(=O)N1CCc2c(c(N3CCCc4cc(-c5cnn(C)c5C)c(C#N)cc43)nn2C2CCOCC2)C1", "note": "[Example 129, 1-(5-acetyl-1-tetrahydropyran-4-yl-6,7-dihydro-4H-pyrazolo[4,3-c]pyridin-3-yl)-6-(1,5-dimethylpyrazol-4-yl)-3,4-dihydro-2H-quinoline-7-carbonitrile]", "IC50": 0.028}, {"smiles": "CC(=O)N1CCc2c(c(Nc3ccc(-c4cnn(C)c4)cc3)nn2C)C1", "note": "[Example 173, 1-(3-indolin-1-yl-1-methyl-6,7-dihydro-4H-pyrazolo[4,3-c]pyridin-5-yl)ethanone]", "IC50": 0.63}, {"smiles": "CC(=O)N1CCc2c(c(N3CCc4cc(F)c(-c5cnn(C)c5)cc43)nn2C2CCOC2)C1", "note": "(stereo not drawn) [Example 210, 1-[3-[5-fluoro-6-(1-methylpyrazol-4-yl)indolin-1-yl]-1-tetrahydrofuran-3-yl-6,7-dihydro-4H-pyrazolo[4,3-c]pyridin-5-yl]ethanone]", "IC50": 0.564}, {"smiles": "CC(=O)N1CCc2c(c(N3CCc4cc(-c5cn(C)nc5C#N)ccc43)nn2[C@H]2CCOC2)C1", "note": "[Example 189, (S)-4-[1-(5-acetyl-1-tetrahydrofuran-3-yl-6,7-dihydro-4H-pyrazolo[4,3-c]pyridin-3-yl)indolin-5-yl]-1-methyl-pyrazole-3-carbonitrile]", "IC50": 1.76}, {"smiles": "CNC(=O)N1CCc2c(c(N3CCCc4cc(-c5ccncn5)c(C#N)cc43)nn2C2CCOCC2)C1", "note": "[Example 309, 1-[3-[4-(1,3-dimethylpyrazol-4-yl)-2-fluoro-anilino]-1-tetrahydrofuran-3-yl-6,7-dihydro-4H-pyrazolo[4,3-c]pyridin-5-yl]ethanone]", "IC50": 0.063}, {"smiles": "CNC(=O)N1CCc2c(c(N3CCN(C)c4cc(-c5cnn(C)c5)c(C(F)(F)F)cc43)nn2C2CCN(C(C)=O)CC2)C1", "note": "[Example 329, 1-(1-acetyl-4-piperidyl)-N-methyl-3-[4-methyl-6-(1-methylpyrazol-4-yl)-7-(trifluoromethyl)-2,3-dihydroquinoxalin-1-yl]-6,7-dihydro-4H-pyrazolo[4,3-c]pyridine-5-carboxamide]", "IC50": 0.007}, {"smiles": "CNC(=O)N1CCc2c(c(N3CCCc4cc(-c5cnn(C)c5)c(C(F)F)cc43)nn2[C@H]2CCCOCC2)C1", "note": "[Example 379, (S)-3-(7-(difluoromethyl)-6-(1-methyl-1H-pyrazol-4-yl)-3,4-dihydroquinolin-1(2H)-yl)-N-methyl-1-(oxepan-4-yl)-1,4,6,7-tetrahydro-5H-pyrazolo[4,3-c]pyridine-5-carboxamide]", "IC50": 0.006}, {"smiles": "CNC(=O)N1CCc2c(c(N3CCCc4cc(-c5ccn(C)c(=O)c5)c(C(F)F)cc43)nn2C2CCOCC2)C1", "note": "[Example 318, 3-[7-(difluoromethyl)-6-(1-methyl-2-oxo-4-pyridyl)-3,4-dihydro-2H-quinolin-1-yl]-N-methyl-1-tetrahydropyran-4-yl-6,7-dihydro-4H-pyrazolo[4,3-c]pyridine-5-carboxamide]", "IC50": 0.005}, {"smiles": "CC(=O)N1CCc2c(c(N3CC(C4CC4)Cc4cc(-c5cnn(C)c5)ccc43)nn2[C@H]2CCOC2)C1", "note": "(stereo partly drawn) [Example 117, 1-[3-[3-cyclopropyl-6-(1-methylpyrazol-4-yl)-3,4-dihydro-2H-quinolin-1-yl]-1-((S)-tetrahydrofuran-3-yl)-6,7-dihydro-4H-pyrazolo[4,3-c]pyridin-5-yl]ethanone]", "IC50": 0.256}, {"smiles": "CC(=O)N1CCc2c(c(N3CCCc4cc(-c5ccc(C)nc5)ccc43)nn2C2COC2)C1", "note": "[Example 6, 1-[3-[6-(6-methyl-3-pyridyl)-3,4-dihydro-2H-quinolin-1-yl]-1-(oxetan-3-yl)-6,7-dihydro-4H-pyrazolo[4,3-c]pyridin-5-yl]ethanone]", "IC50": 0.375}, {"smiles": "CCn1nc(Nc2cccc(C)c2)c2c1CCN(C(C)=O)C2", "note": "[Example 199, 1-[3-[3,3-dimethyl-5-(1-methylpyrazol-4-yl)indolin-1-yl]-1-methyl-6,7-dihydro-4H-pyrazolo[4,3-c]pyridin-5-yl]ethanone]", "IC50": 2.89}, {"smiles": "CC(=O)N1CCc2c(c(N3CCc4cc(-c5cn(C)nc5C(F)(F)F)ccc43)nn2C)C1", "note": "[Example 180, 1-[1-methyl-3-[5-[1-methyl-3-(trifluoromethyl)pyrazol-4-yl]indolin-1-yl]-6,7-dihydro-4H-pyrazolo[4,3-c]pyridin-5-yl]ethanone]", "IC50": 0.549}, {"smiles": "CC(=O)N1CCc2c(c(N3CCCc4cc(-c5cnn(C)c5)ccc43)nn2C2CCCCO2)C1", "note": "(stereo not drawn) [Example 72, 1-[3-[6-(1-methylpyrazol-4-yl)-3,4-dihydro-2H-quinolin-1-yl]-1-tetrahydropyran-2-yl-6,7-dihydro-4H-pyrazolo[4,3-c]pyridin-5-yl]ethanone]", "IC50": 0.681}, {"smiles": "CC(=O)N1CCc2c(c(N3CCCc4cc(-c5cnn(C)c5)ccc43)nn2C2CCNC(=O)C2)C1", "note": "(stereo not drawn) [Example 76, 4-(5-acetyl-3-(6-(1-methyl-1H-pyrazol-4-yl)-3,4-dihydroquinolin-1(2H)-yl)-4,5,6,7-tetrahydro-1H-pyrazolo[4,3-c]pyridin-1-yl)piperidin-2-one]", "IC50": 0.652}, {"smiles": "CC(=O)N1CCC(n2nc(N3CCCc4cc(-c5cnn(C)c5)c(C(F)F)cc43)c3c2CCN(C(C)=O)C3)CC1", "note": "[Example 327, 1-[4-[5-acetyl-3-[7-(difluoromethyl)-6-(1-methylpyrazol-4-yl)-3,4-dihydro-2H-quinolin-1-yl]-6,7-dihydro-4H-pyrazolo[4,3-c]pyridin-1-yl]-1-piperidyl]ethanone]", "IC50": 0.006}, {"smiles": "CC(=O)N1CCc2c(c(N3CCCc4c3ccc(-c3cnn(C)c3)c4Cl)nn2[C@H]2CCOC2)C1", "note": "[Example 97, 1-[3-[5-chloro-6-(1-methylpyrazol-4-yl)-3,4-dihydro-2H-quinolin-1-yl]-1-[(3S)-tetrahydrofuran-3-yl]-6,7-dihydro-4H-pyrazolo[4,3-c]pyridin-5-yl]ethanone]", "IC50": 0.149}, {"smiles": "CC(=O)N1CCc2c(c(Nc3cccc(-c4cnn(C)c4)c3F)nn2CC(F)(F)F)C1", "note": "[Example 58, 1-(3-((2-fluoro-3-(1-methyl-1H-pyrazol-4-yl)phenyl)amino)-1-(2,2,2-trifluoroethyl)-6,7-dihydro-1H-pyrazolo[4,3-c]pyridin-5(4H)-yl)ethanone]", "IC50": 0.7}, {"smiles": "CC(=O)N1CCc2c(c(N3CCc4cc(-c5cnn(C)c5)ccc43)nn2[C@@H]2CCOC2)C1", "note": "[Example 177, (R)-1-[3-[5-(1-methylpyrazol-4-yl)indolin-1-yl]-1-tetrahydrofuran-3-yl-6,7-dihydro-4H-pyrazolo[4,3-c]pyridin-5-yl]ethanone]", "IC50": 0.892}, {"smiles": "CNC(=O)N1CCc2c(c(N3CCCc4cc(-c5cc(C)n(C)n5)c(C(F)F)cc43)nn2C2CCOCC2)C1", "note": "[Example 321, 3-[7-(difluoromethyl)-6-(1,5-dimethylpyrazol-3-yl)-3,4-dihydro-2H-quinolin-1-yl]-N-methyl-1-tetrahydropyran-4-yl-6,7-dihydro-4H-pyrazolo[4,3-c]pyridine-5-carboxamide]", "IC50": 0.011}]}]}
